The densities may have been worked out from excess volumes.
Test: xn = mol fraction of the nth substance listed
Details: 100 kPa

Cc1ccccc1 + CCCCCC[N+]1(C)CCCC1.O=S(=O)([N-]S(=O)(=O)C(F)(F)F)C(F)(F)F
x1 = 1
Details | mass density [kg/m3]
293.15 K | 866.9
298.15 K | 862.2
303.15 K | 857.5
313.15 K | 848.2

Cc1ccccc1 + CCCC[N+]1(C)CCCC1.O=S(=O)([N-]S(=O)(=O)C(F)(F)F)C(F)(F)F
x1 = 1
Details | mass density [kg/m3]
293.15 K | 866.9
298.15 K | 862.2
303.15 K | 857.5
313.15 K | 848.2

Cc1ccccc1 + CCCC[n+]1ccccc1.O=S(=O)([N-]S(=O)(=O)C(F)(F)F)C(F)(F)F
x1 = 1
Details | mass density [kg/m3]
293.15 K | 866.9
298.15 K | 862.2
303.15 K | 857.5
308.15 K | 852.9
313.15 K | 848.2

CCCCCC[N+]1(C)CCCC1.O=S(=O)([N-]S(=O)(=O)C(F)(F)F)C(F)(F)F + Cc1ccccc1
mass density [kg/m3]
Details | x2 = 0 | x2 = 0.0942 | x2 = 0.1943 | x2 = 0.29 | x2 = 0.3938 | x2 = 0.493 | x2 = 0.5961 | x2 = 0.6986 | x2 = 0.7993
293.15 K | 1339.5 | 1325.7 | 1309 | 1290.1 | – | 1237.1 | 1199.6 | 1150.9 | –
298.15 K | 1335.2 | 1321.4 | 1304.7 | 1285.8 | 1261.4 | 1232.8 | 1195.2 | 1146.4 | 1081.3
303.15 K | 1331 | 1317.2 | 1300.4 | 1281.5 | 1257.1 | 1228.4 | – | 1141.9 | 1076.8
308.15 K | 1326.8 | 1312.9 | 1296.2 | – | 1252.8 | 1224 | 1186.3 | 1137.4 | –
313.15 K | – | 1308.7 | 1291.9 | 1272.9 | 1248.4 | 1219.7 | 1181.9 | 1132.9 | 1067.6

CCCC[N+]1(C)CCCC1.O=S(=O)([N-]S(=O)(=O)C(F)(F)F)C(F)(F)F + Cc1ccccc1
mass density [kg/m3]
Details | x2 = 0 | x2 = 0.1093 | x2 = 0.1978 | x2 = 0.3041 | x2 = 0.3965 | x2 = 0.5054 | x2 = 0.6027 | x2 = 0.7066
293.15 K | 1398.4 | 1378.2 | 1359.5 | 1333.5 | 1306.4 | 1268 | 1225.1 | 1166.4
298.15 K | – | 1373.8 | 1355 | 1329 | 1301.9 | – | – | 1161.8
303.15 K | 1389.5 | 1369.3 | 1350.6 | – | – | 1259 | 1216 | 1157.2
308.15 K | 1385.1 | 1364.9 | 1346.1 | 1320.1 | 1293 | 1254.5 | 1211.4 | 1152.6
313.15 K | – | 1360.5 | 1341.7 | – | – | 1250 | 1206.9 | –

CCCC[n+]1ccccc1.O=S(=O)([N-]S(=O)(=O)C(F)(F)F)C(F)(F)F + Cc1ccccc1
mass density [kg/m3]
Details | x2 = 0 | x2 = 0.0994 | x2 = 0.2022 | x2 = 0.2939 | x2 = 0.3972 | x2 = 0.5025 | x2 = 0.6068 | x2 = 0.7033
293.15 K | 1452.8 | 1431.6 | 1406.4 | 1380.5 | – | 1304.1 | – | 1191.8
298.15 K | – | 1426.9 | 1401.7 | 1375.8 | 1341.5 | – | 1247.7 | 1187.1
303.15 K | 1443.4 | 1422.2 | 1397.1 | – | 1336.8 | 1294.7 | 1242.9 | 1182.3
308.15 K | 1438.7 | 1417.4 | 1392.4 | 1366.5 | – | – | 1238.2 | 1177.6
313.15 K | 1434.1 | 1412.7 | 1387.7 | 1361.8 | – | 1285.3 | – | 1172.8
